# Source: the supplement of paper PMC9446081
# In all, about 39,000 compounds went through this assay and about 220 (0.56%) showed activity. This is one part of the list.
# Test system: Escherichia coli K-12 BW25113
# Test: relative growth (OD600 normalised to plate interquartile mean) (fraction); higher = less growth inhibition, active = 0.2 or less
# Conditions: 50 µM; LB; incubation time: overnight (16-24 h)
# 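Further: static incubation at 37 °C against the wild-type strain, values averaged over two biological replicates.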
row,SMILES,relative growth
1,Cc1noc(C)c1S(=O)(=O)Nc1cccc2c1O[C@@H](CN(C)S(=O)(=O)c1ccccc1)[C@@H](C)CN([C@H](C)CO)C2=O,inactive: 0.987
2,CC(=O)OCC(=O)C12N=C(C)OC1CC1C3CCC4=CC(=O)C=CC4(C)C3C(O)CC12C (stereo unspecified),inactive: 1.11
3,COc1ccc(S(=O)(=O)Nc2cccc3c2O[C@@H](CN(C)S(=O)(=O)c2ccc(C)cc2)[C@H](C)CN([C@H](C)CO)C3=O)cc1,inactive: 0.988
4,C[C@H]1CCCCO[C@H](CN(C)C(=O)Nc2cccc3ccccc23)[C@@H](C)CN([C@@H](C)CO)C(=O)c2cc(NS(=O)(=O)c3cn(C)cn3)ccc2O1,inactive: 0.989
5,C[C@H]1CN([C@@H](C)CO)C(=O)c2cccc(NC(=O)Nc3ccc(C(F)(F)F)cc3)c2O[C@@H]1CN(C)C(=O)Nc1ccc(F)cc1,inactive: 0.882
6,C[C@@H]1CN([C@@H](C)CO)C(=O)c2cc(NC(=O)Nc3ccccc3)ccc2O[C@@H](C)CCCCO[C@H]1CN(C)Cc1ccncc1,inactive: 1.02
7,CC(C)CC#Cc1cnc2c(c1)C(=O)N([C@@H](C)CO)C[C@H](C)[C@@H](CN(C)S(=O)(=O)c1ccccc1)O2,inactive: 1.01
8,C[C@@H]1CN([C@@H](C)CO)S(=O)(=O)c2ccc(C#Cc3ccncc3)cc2O[C@@H]1CN(C)C(=O)C1CCCCC1,inactive: 1.01
9,C[C@@H]1CN([C@@H](C)CO)C(=O)Cc2cc(NC(=O)CCN3CCOCC3)ccc2O[C@@H]1CN(C)C(=O)Nc1ccc(F)cc1,inactive: 0.992
10,COc1ccc(S(=O)(=O)Nc2cccc3c2O[C@@H](CN(C)S(=O)(=O)c2ccccc2)[C@@H](C)CN([C@@H](C)CO)C3=O)cc1,inactive: 1.01
11,C[C@H]1CN([C@@H](C)CO)C(=O)CCCn2nncc2CO[C@H]1CN(C)S(C)(=O)=O,inactive: 0.986
12,C[C@H](CO)N1C[C@H](C)[C@@H](CN(C)C(=O)Nc2ccccc2)Oc2ccc(NS(C)(=O)=O)cc2CC1=O,inactive: 0.982
13,O=C(C[C@H]1CC[C@H]2[C@@H](COC[C@@H](O)CN2C(=O)c2ccccc2)O1)N1CCOCC1,inactive: 0.996
14,O=C(Nc1ccccc1)C1=C[C@@H](c2ccc3c(c2)Cc2ccccc2-3)C[C@@H](OCc2ccc(CO)cc2)O1,inactive: 1.03
15,C[C@@H]1CCCCO[C@@H](CN(C)C(=O)NC2CCCCC2)[C@@H](C)CN([C@@H](C)CO)C(=O)c2cc(NC(=O)Nc3ccc(F)cc3)ccc2O1,inactive: 1
16,CCn1cc(C(=O)O)c(=O)c2cc(F)c(N3CCNCC3)cc21,active: 0.0456
17,COc1ccc(S(=O)(=O)Nc2ccc3c(c2)CC(=O)N([C@H](C)CO)C[C@@H](C)[C@H](CN(C)Cc2ccc(-c4ccccc4)cc2)O3)cc1,inactive: 1.04
18,CCC(CC)[C@H](NC(C)=O)[C@@H]1[C@H](O)[C@@H](C(=O)O)C[C@H]1NC(=N)N,inactive: 0.98

row,SMILES,relative growth
1,COC(=O)c1c(C)cc(OC(=O)c2c(C)cc(O)c(CO)c2O)c(C)c1O,inactive: 0.958
2,C[C@H](CO)N1C[C@H](C)[C@H](CN(C)Cc2ccc(C(=O)O)cc2)Oc2c(NC(=O)c3ccncc3)cccc2C1=O,inactive: 0.989
3,Cc1noc(C)c1S(=O)(=O)Nc1ccc2c(c1)C(=O)N([C@@H](C)CO)C[C@H](C)[C@H](CN(C)S(=O)(=O)c1cccs1)O2,inactive: 1.02
4,C[C@H]1CN([C@@H](C)CO)C(=O)Cc2cc(NC(=O)C3CC3)ccc2O[C@H]1CN(C)Cc1ccc2c(c1)OCO2,inactive: 0.971
5,Cc1ccc(S(=O)(=O)N[C@@H]2C=C[C@@H](CC(=O)NCCN3CCCCC3)O[C@@H]2CO)cc1,inactive: 1.07
6,COc1ccc(S(=O)(=O)Nc2ccc3c(c2)CC(=O)N([C@H](C)CO)C[C@H](C)[C@@H](CN(C)S(=O)(=O)c2c(C)noc2C)O3)cc1,inactive: 0.984
7,C[C@@H]1CN([C@H](C)CO)C(=O)c2cc(NC(=O)Nc3ccc(C(F)(F)F)cc3)ccc2O[C@@H](C)CCCCO[C@H]1CN(C)Cc1ccc(Cl)c(Cl)c1,inactive: 1.01
8,C[C@@H]1CN([C@@H](C)CO)C(=O)c2cccc(NC(=O)c3cnccn3)c2O[C@H]1CN(C)S(=O)(=O)c1ccccc1,inactive: 0.991
9,C[C@H]1CN([C@@H](C)CO)C(=O)c2cccc(NS(=O)(=O)c3cccs3)c2O[C@@H]1CN(C)S(=O)(=O)c1cn(C)cn1,inactive: 1.02
10,C[C@@H]1CN([C@H](C)CO)C(=O)c2cccc(NS(=O)(=O)c3cccs3)c2O[C@@H]1CN(C)Cc1ccncc1,inactive: 1.02
11,CO[C@H]1C[C@@H]2CC[C@@H](C)[C@@](O)(O2)C(=O)C(=O)N2CCCC[C@@H]2C(=O)O[C@H]([C@H](C)C[C@@H]2CC[C@@H](O)[C@H](OC)C2)CC(=O)[C@H](C)/C=C(\C)[C@@H](O)[C@@H](OC)C(=O)[C@H](C)C[C@H](C)/C=C/C=C/C=C/1C,inactive: 0.979
12,CC(C)NC(=O)Nc1ccc2c(c1)C(=O)N([C@H](C)CO)C[C@@H](C)[C@H](CN(C)Cc1ccc3c(c1)OCO3)O2,inactive: 0.984
13,O=C1O[C@@H](c2ccccc2)[C@@H](c2ccccc2)N2[C@@H](c3ccc(OCCO)cc3)[C@]3(C(=O)Nc4ccccc43)[C@@H](C(=O)Nc3nc4ccccc4s3)[C@H]12,inactive: 0.99
14,Cc1ccc(S(=O)(=O)N(C)C[C@H]2OCCCC[C@@H](C)Oc3ccc(NC(=O)CCCCCC(=O)Nc4ccccc4N)cc3C(=O)N([C@H](C)CO)C[C@@H]2C)cc1,inactive: 1
15,COc1ccc2c(-c3ccc(Cl)cc3)c(C)oc2c1,inactive: 0.93
16,C[C@H](CO)N1C[C@H](C)[C@@H](CN(C)Cc2ccc(-c3ccccc3)cc2)Oc2ccc(NC(=O)Cn3cnnn3)cc2C1=O,inactive: 1.02
17,C[C@@H]1CN([C@@H](C)CO)S(=O)(=O)c2ccc(C#Cc3ccncc3)cc2O[C@@H]1CN(C)S(=O)(=O)c1ccc(F)cc1,inactive: 1.03
18,C[C@H](CO)N1C[C@H](C)[C@H](CN(C)Cc2ccc(C(F)(F)F)cc2)Oc2ccc(NC(=O)Nc3ccc(F)cc3)cc2CC1=O,inactive: 1.02
